# Data from PubChem BioAssay AID1347120 (National Center for Advancing Translational Sciences (NCATS), 2019).
# The campaign covered roughly 390,000 compounds. About 930 (0.24%) were called active. The shares of active, inactive and inconclusive entries below differ from those in the screen. Calls come from the whole dose curve; as a rule, active = well fitted activation curve with a large enough effect; inconclusive = small, poorly fitted or top-dose-only effect; inactive = no such curve, though single readings can be large or run the other way. Potencies of inconclusive entries are doubtful fits and often do not repeat.
# Test: qHTS for Suppressors of FUS Proteinopathy: Primary screen using FUS-linked yeast assay; note: nearly all actives have a fitted effect of over 55% in size;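 for growth rescue (activation): plate controls were DMSO vehicle for no effect and reference control for full effect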
# Conditions: S. cerevisiae FUS-expressing, OD600, 24 h; Potency: growth rescue; growth rescue (activation): at 76.6 µM (top of the series)
# How it was run: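 Toxicity suppression screen in FUS-yeast. Cells induced with 2% galactose, starting OD 0.005, treated 24hr at 30C with compounds at multiple final concentrations; growth by OD600.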
# Potency is the fitted concentration of half-maximal effect; tags give direction and shape of the fitted curve.
Compound,Potency,growth rescue (activation)
O=C1NC(c2ccccc2)=C(c2nc3ccccc3s2)C(c2ccc(O)cc2)N1 (configuration not stated),active: 35.5 µM,–
COc1ccc(CCNc2nc(-c3ccncc3)cs2)cc1OC,inactive,–
COc1ccccc1CNC(=O)CCC1N=C2c3ccccc3N=C(SCC(N)=O)N2C1=O (configuration not stated),"inconclusive: 35.5 µM [activator, single point]",–
Cc1cc(C)c(C)c(S(=O)(=O)N2CCN(C(=O)c3ccc4c(=O)n5c(nc4c3)CCC5)CC2)c1C,"inconclusive: 15.8 µM [activator, partial curve, poor fit]",–
CCOc1ccc2nc(Nc3nc4ccc(NC(C)=O)cc4s3)sc2c1,"inconclusive: 5.01 µM [activator, full curve]",–
CCOC(=O)[C@]12CCCC=C1N(Cc1ccc3c(c1)OCO3)C(=O)[C@H](CC(=O)NCC1CCCCC1)C2,"inconclusive: 35.5 µM [activator, single point]",–
Oc1ccccc1N1CCN(c2ncnc3scc(-c4ccc(F)cc4)c23)CC1,"inconclusive: 35.5 µM [activator, partial curve, poor fit]",–
CC(=O)Nc1cc(-c2ccc(N(C)C)cc2)cn2c(-c3ccc(F)cc3)cnc12,"inconclusive: 28.2 µM [activator, single point]",–
CCOc1ccccc1N1CCN(S(=O)(=O)CC)CC1,"inconclusive: 50.1 µM [activator, single point]",–
Cc1ccc(NC(=O)Cn2nnc(-c3nc(-c4ccncc4)no3)c2N)c(C)c1,inactive,–
N#CCC(=O)Nc1ccc(C(=O)NCc2cccc(Cl)c2)cc1,"inconclusive: 35.5 µM [activator, single point]",–
CC(=O)Nc1ccc(C(=O)O)cc1,inactive,–
CCc1nc2c(OCc3ccc(Cl)cc3)cccn2c1N(C)C(=O)c1cccs1,"inconclusive: 31.6 µM [activator, single point]",–
COc1ccc(NC(=O)c2cccc(N3C(=O)c4ccc(C(=O)Nc5ccc(OC)c(O)c5)cc4C3=O)c2)cc1O,"inconclusive: 22.4 µM [activator, partial curve, poor fit]",–
Cc1ccc(SCc2nc(N)nc(Nc3ccccc3C)n2)cc1C,"inconclusive: 50.1 µM [activator, single point]",–
COc1ccc(CNC(=O)C2CCN(S(=O)(=O)c3c(C)noc3/C=C/N(C)C)CC2)cc1,"inconclusive: 39.8 µM [activator, partial curve, poor fit]",–
COC(=O)[C@]1(CC(C)C)N[C@H](c2ccc(-c3ccc(Cl)c(Cl)c3)cc2)[C@@H]2C(=O)N(C)C(=O)[C@@H]21,"inconclusive: 12.6 µM [activator, partial curve, poor fit]",–
CC(C)(C)N(Cc1ccccc1)C(=O)COC(=O)CSc1ccc([N+](=O)[O-])cc1,"inconclusive: 50.1 µM [activator, single point]",–
C[C@H](CO)N1C[C@H](C)[C@@H](CN(C)S(=O)(=O)c2cccs2)Oc2c(NC(=O)Nc3ccccc3)cccc2C1=O,"inconclusive: 28.2 µM [activator, single point]",–
COc1ccc(-n2c(=O)c3c(C)c(C)sc3n(CC(=O)NCc3ccc(C)cc3)c2=O)c(OC)c1,"inconclusive: 3.55 µM [activator, full curve]",–
Cc1cccc(CN2CCN(Cc3ccco3)CC2)c1,inactive,–

Compound,Potency,growth rescue (activation)
O=C(CSc1nc2c(sc3ccccc32)c(=O)n1CCCC(=O)NC1CCCC1)Nc1ccc(F)cc1,inactive,–
COCCn1c(=S)[nH]c2ncccc2c1=O,inactive,–
COc1ccc(-c2noc(N3CCC(C(=O)N4CCN(c5cccc(C)c5C)CC4)CC3)n2)cc1,inactive,–
O=C1[C@@H]2CSC(c3ccc(Cl)cc3)N2C(=O)N1c1ccccc1 (some centres not stated),inactive,–
Cc1cc(C)nc(NC(=S)N2CCN(c3ccc(Cl)c(Cl)c3)CC2)c1,inactive,–
CCOC1=C2[C@@H](CN(S(=O)(=O)c3ccccc3C)[C@H]2c2ccc(Cl)cc2)[C@H]2C(=O)N(c3ccccc3)C(=O)[C@H]2C1,"inconclusive: 35.5 µM [activator, single point]",–
COc1cc(/C=C2\SC(=S)N(NS(=O)(=O)c3ccc(C)cc3)C2=O)ccc1O,"inconclusive: 14.1 µM [activator, partial curve, poor fit]",–
CC(=O)C1=C(O)C(=O)N(CCc2c[nH]c3ccccc23)C1c1ccco1 (configuration not stated),"inconclusive: 7.08 µM [activator, partial curve]",–
Cn1c(NCc2ccccc2)nc2c1c(=O)n(Cc1ccc(Br)cc1)c(=O)n2C,inactive,–
CN(C(=O)COC(=O)CNC(=O)c1ccc2ccccc2c1)c1c(N)n(Cc2ccccc2)c(=O)[nH]c1=O,"inconclusive: 10 µM [activator, partial curve]",–
CN(C1CCCCC1)S(=O)(=O)c1ccc(SCC(=O)C(C)(C)C)nc1,inactive,–
CCNC(=O)COC(=O)c1cc(-c2ccco2)nc2ccccc12,inactive,–
O=c1[nH]c(C2CCN(S(=O)(=O)c3ccc(S(=O)(=O)NC4CC4)cc3)CC2)nc2c1nnn2Cc1cccc(F)c1,"inconclusive: 14.1 µM [activator, partial curve]",–
CCc1ccc(NC(=O)Cn2c(=O)n(Cc3ccco3)c(=O)c3oc4ccccc4c32)cc1,inactive,–
O=C(NC1CCCC1)c1sc(=S)n2c1[nH]c(=O)c1ccccc12,–,inconclusive: 96.1% [activator]
Cc1ccc(C(CC(=O)O)Nc2nc(N3CCCCC3)nc(N3CCCCC3)n2)cc1 (configuration not stated),"inconclusive: 31.6 µM [activator, single point]",–
CC(=O)N1CCN(S(=O)(=O)c2cccc(C(=O)N3CCN(S(=O)(=O)c4c(C)c(C)cc(C)c4C)CC3)c2)CC1,"inconclusive: 25.1 µM [activator, partial curve]",–
Nc1cc(=O)nc(SCC(=O)Nc2cccc3ccccc23)n1CCc1ccccc1,"inconclusive: 50.1 µM [activator, partial curve, poor fit]",–
COc1ccc(/C=C/C(=O)Nc2nc3n(n2)C(c2ccc(F)cc2)C=C(c2ccccc2)N3)cc1 (configuration not stated),"inconclusive: 25.1 µM [activator, partial curve, poor fit]",–
COc1cccc(NC(=O)c2cc(-c3ccc(C)o3)nc3ccccc23)c1,"inconclusive: 8.91 µM [activator, single point]",–
CC(=O)Nc1ccc(S(=O)(=O)NNC(=O)c2ccc(S(=O)(=O)N3CCCCC3)cc2)cc1,"inconclusive: 15.8 µM [activator, partial curve, poor fit]",–

Compound,Potency,growth rescue (activation)
CCOc1cc(/C=N/Nc2nc3ccccc3[nH]2)cc(Br)c1OCC(=O)N(C)C,inactive,–
COc1ccc(/C(O)=C2\C(=O)C(=O)N(c3cc(C)on3)C2c2ccccc2OC)cc1C (configuration not stated),"inconclusive: 11.2 µM [activator, full curve, poor fit]",–
COc1ccc2nc3n(c(=O)c2c1)-c1cc2ccccc2cc1C(=O)NC3Cc1ccc(O)cc1 (configuration not stated),"inconclusive: 28.2 µM [activator, single point]",–
CC1=C(C(=O)N(C(C)C)C(C)C)CC(CC(=O)NC2CCCC2)C(=O)N1Cc1ccc(C(C)(C)C)cc1 (configuration not stated),"inconclusive: 12.6 µM [activator, partial curve, poor fit]",–
CCCN(CC1CC1)C(=O)CSc1nnc(-c2cc(-c3cccs3)nc3ccccc23)o1,inactive,–
COc1ccccc1NC(=O)CSc1nc(-c2ccc(C(C)(C)C)cc2)c(C#N)c(=O)[nH]1,"inconclusive: 25.1 µM [activator, single point]",–
Cc1ccc(NC(=S)Nc2c(C)n(C)n(-c3ccccc3)c2=O)cc1,"inconclusive: 7.94 µM [activator, single point]",–
CC1CCCN(S(=O)(=O)c2ccc(NC(=O)CN3C(=O)NC(C)(c4ccccc4)C3=O)cc2)C1 (configuration not stated),active: 28.2 µM,–
CCc1ccc(CNC(=O)c2c(C)oc3ncnc(N4CCOCC4)c23)cc1,inactive,–
CCOC(=O)N1CCN(C(=O)c2c[nH]c3ccc(S(=O)(=O)N(C)c4ccc(F)cc4)cc3c2=O)CC1,"inconclusive: 5.01 µM [activator, partial curve]",–
CCOC(=O)N(C)c1ccc(C(O)(C(F)(F)F)C(F)(F)F)cc1,inactive,–
CC(C)Oc1ccccc1NC(=O)CSc1nc2ccccc2c(=O)n1C,inactive,–
COC(=O)[C@]12C[C@H](CC(=O)NCCC(C)C)C(=O)N(Cc3ccco3)C1=C[C@H](C(C)(C)C)O[C@@H]2C,"inconclusive: 28.2 µM [activator, single point]",–
Cc1ccccc1OCc1ccc(-c2nc(C#N)c(NCc3cccnc3)o2)o1,"inconclusive: 28.2 µM [activator, single point]",–
CC1=C(c2ccc(C)c(C)c2)S(=O)(=O)N=C1N1CCC(C(=O)N2CCC(C)CC2)CC1,inactive,–
CC1CCCCN1C(=O)c1cc2nc(-c3ccccc3)cc(-c3ccccc3)n2n1 (configuration not stated),"inconclusive: 22.4 µM [activator, partial curve, poor fit]",–
Cc1ccc(C(=O)C2=C(O)C(=O)N(Cc3ccco3)C2c2ccc(N(C)C)cc2)o1 (configuration not stated),"inconclusive: 35.5 µM [activator, partial curve, poor fit]",–
COc1ccc2nc3oc(C(=O)NC4CCN(Cc5ccccc5)CC4)cc3cc2c1,inactive,–
COC(=O)[C@]1(CC(C)C)N[C@H](c2ccc(-c3cccc(Cl)c3)cc2)[C@@H]2C(=O)N(C)C(=O)[C@@H]21,"inconclusive: 15.8 µM [activator, partial curve, poor fit]",–
COc1ccc(S(=O)(=O)NC(C(=O)OCC(=O)Nc2ccc(N3CCOCC3)cc2)C(C)C)cc1 (configuration not stated),"inconclusive: 28.2 µM [activator, partial curve, poor fit]",–
